Hit rate of the full screen: of about 420,000 compounds, about 50,000 (12%) were called active. This list was built around the results that the source calls inconclusive (neither active nor inactive); the mix of calls is not that of the screen. Calls follow the shape of the dose curve; as a rule, active = well fitted inhibition curve with a large enough effect; inconclusive = small, poorly fitted or top-dose-only effect; inactive = flat fitted curve, though single readings scatter. No potency is given beside an inconclusive call; the fits are too rough.
assay: qHTS for Inhibitors of human tyrosyl-DNA phosphodiesterase 1 (TDP1): qHTS in cells in presence of CPT; settings: chicken DT40 Tdp1-/-;hTDP1 cells + 20 nM CPT, ATP luminescence, 48 h; activity change, negative = growth inhibition: at 46.2 µM (top of the series); also: nearly all actives have a fitted effect of over 55% in size
How it was run: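 Chicken DT40 Tdp1-/- cells stably complemented with human TDP1 were seeded at 400 cells/well in medium containing 20 nM camptothecin, exposed to pin-transferred compounds, and grown at 37 °C for at least 48 hr. Viability was read as ATP luminescence.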
% is scaled to controls: 0 for no effect and ±100 for the full control effect; potency is read from the fitted curve at half-maximal effect; tags tell the direction and shape of the fitted curve.

Row | Compound | Potency | activity change, negative = growth inhibition
1 | O=C(NCc1ccccc1)C1=C[C@@H](c2csc3ccccc23)C[C@@H](OCc2ccc(CO)cc2)O1 | active: 2.91 µM | 
2 | Cc1cc(Br)ccc1NC(=O)c1c(C)oc2ncnc(N3CCCCC3)c12 | active: 16.4 µM | 
3 | Cc1ccccc1N1CC(c2nc3ccccc3n2Cc2ccc(Br)cc2)CC1=O (centres undefined) | inconclusive [inhibitor, single point] | 
4 | Cc1cccc(-c2nnc(SCc3ccc(C#N)cc3)n2Cc2ccco2)c1 | inconclusive [inhibitor, single point] | 
5 | CC1CCN(C(=O)c2ccc(CS(=O)(=O)Cc3ccccc3)cc2)CC1 | inconclusive [inhibitor, single point] | 
6 | O=C(NCc1ccc(Cl)cc1Cl)Nc1nc([C@@H]2O[C@H](CO)[C@@H](O)[C@H](O)[C@H]2O)cs1 | inactive | 
7 | COc1ccc(OC)c2c(C)cc(N3CCCCCC3)nc12 | inconclusive [inhibitor, single point] | 
8 | Cc1cc(NC(=O)c2cc(-c3ccc(Cl)c(Cl)c3)on2)n(-c2ccccc2)n1 | inactive | 
9 | CCC(=O)N(C(=O)CC)N1CCN(c2ccncc2S(=O)(=O)N2CCCCC2)CC1 | inconclusive [inhibitor, single point] | 
10 | CCc1ccc(NC(=O)Cn2c(=O)n(CCCC(=O)NCCc3ccc(OC)c(OC)c3)c(=O)c3ccccc32)cc1 | inconclusive [inhibitor, single point] | 
11 | CCNc1nc2c(c(=O)n(C)c(=O)n2C)n1CCCc1ccccc1 | active: 11.6 µM | 
12 | CCOC(=O)N1CCc2c(sc3c2C(=O)NC(c2ccc(C(=O)OC)cc2)N3)C1 (centres undefined) | active: 7.31 µM | 
13 | Cc1nnc(SCC(=O)Nc2ccc(N(C)C)cc2)[nH]c1=O | inactive | 
14 | COc1ccccc1-c1nccc(NCc2cccc(C)c2)n1 | active: 16.4 µM | 
15 | Cc1no[n+]([O-])c1COc1ccc(/C=N/n2nnnc2N)cc1 | inconclusive [inhibitor, single point] | 
16 | Cc1ccc(-c2nc3ccccn3c2C=O)cc1 |  | inconclusive: -35.6% [inhibitor]
17 | C=CCNc1nc(NCCOC)c2sc(-c3ccccc3)cc2n1 | inconclusive [inhibitor, single point] | 
18 | CC(C)Oc1cccc(C(=O)C2CCCN(Cc3cccn3-c3ccccn3)C2)c1 (centres undefined) | inconclusive [inhibitor, single point] | 
19 | CCC(C)NC(=O)c1ccccc1NC(=O)COc1ccc(OC)cc1 (centres undefined) | inconclusive [inhibitor, single point] | 
20 | O=C(NCCC1=CCCCC1)c1cccc(S(=O)(=O)N2CCCCC2)c1 | inconclusive [inhibitor, single point] | 
21 | CCN(CC)CCOC(=O)c1ccc(NC(=O)c2cc3cc(OC)ccc3oc2=O)cc1 | active: 0.0411 µM | 
22 | COc1cccc(NC(=O)C(=O)NCC(c2ccco2)N2CCc3ccccc3C2)c1 (centres undefined) | inconclusive [inhibitor, single point] | 

Row | Compound | Potency | activity change, negative = growth inhibition
23 | COc1ccccc1NS(=O)(=O)c1cccc(C(=O)N2CCN(Cc3ccc4c(c3)OCO4)CC2)c1 | inconclusive [inhibitor, partial curve] | 
24 | C[C@@H]1CCCCO[C@H](CN(C)Cc2ccc(C(F)(F)F)cc2)[C@@H](C)CN([C@H](C)CO)C(=O)c2cc(NS(=O)(=O)c3cn(C)cn3)ccc2O1 | inactive | 
25 | CC(=O)NC12CC3CC(C1)CC(C(=O)OCC(=O)c1ccc4c(c1)OCCO4)(C3)C2 | inconclusive [inhibitor, single point] | 
26 | CCOc1ccc(Sc2cc(C(=O)NCc3ccccc3Cl)c3ccccc3n2)cc1 | inconclusive [inhibitor, single point] | 
27 | Clc1ccc(C2=NCCn3nc4ccccc4c32)cc1 | inconclusive [inhibitor, single point] | 
28 | O=C(CSc1ccccc1F)NC(=O)NC1CCCC1 | inconclusive [inhibitor, single point] | 
29 | COc1ccc(OC)c(N=c2oc3cc(O)ccc3cc2C(N)=O)c1 | active: 14.6 µM | 
30 | O[C@@H]1CN(Cc2cccs2)[C@@H](c2ccc(Cl)cc2)C[C@H]1n1cc(C2CC2)nn1 | inconclusive [inhibitor, single point] | 
31 | COc1ccc(NC(=O)CSc2nc3ccc(OC)cc3[nH]2)cc1 | inactive | 
32 | CC(=O)c1ccccc1NC(=O)CSc1n[nH]c(=O)n1C1CC1 | inactive | 
33 | CCCCNC(=O)[C@H]1C[C@H]1[C@@H](O)[C@H](CO)NC(=O)[C@H](COCc1ccccc1)NC(=O)OC(C)(C)C | inactive | 
34 | COc1cccc(/C=C/C(=O)c2ccc[nH]2)c1 | inconclusive [inhibitor, single point] | 
35 | CC1CC(C)CN(CCCNC(=O)CN2C(=O)COc3ccc(S(=O)(=O)N4CCOCC4)cc32)C1 (centres undefined) | inactive | 
36 | Cc1ccc(-c2cc3nc4c(c(=O)n3[nH]2)CCCC4)cc1 | inconclusive [inhibitor, full curve] | 
37 | CN(CC(=O)N1CCN(Cc2ccccc2)CC1)C(=O)Cc1ccc(Cl)c(Cl)c1 | inconclusive [inhibitor, single point] | 
38 | CCOc1ccc(S(=O)(=O)N2CCCCC2)cc1NC(=O)C1CCCC1 | inactive | 
39 | CC(C)[C@@H]1NC(=O)[C@H](Cc2ccccc2)NC(=O)[C@@H](CC(=O)O)NC(=O)CNC(=O)[C@H](CCCNC(=N)N)NC1=O | inactive | 
40 | Cc1ccccc1NC(=O)CCn1nc(-c2ccccc2)c2ccccc2c1=O | inconclusive [inhibitor, single point] | 
41 | Cn1cnnc1SCc1ccc(C(=O)N/N=C(/CCC(=O)O)c2ccc(C(C)(C)C)cc2)cc1 | inactive | 
42 | COCc1cc(C)nc(N/N=C/c2ccc(-c3ccc(Cl)cc3[N+](=O)[O-])o2)c1C#N | inactive | 
43 | NC(=O)c1ccccc1NC(=O)COc1ccc(Cl)cc1 | inconclusive [inhibitor, partial curve] | 
44 | NNC(=O)c1sc(-c2ccccc2)cc1N | inconclusive [inhibitor, single point] | 

— PubChem BioAssay AID686979 (National Center for Advancing Translational Sciences (NCATS), 2013)
